The campaign covered roughly 350,000 compounds. About 9,900 (2.8%) were called active. This list was built around the results that the source calls inconclusive (neither active nor inactive); the mix of calls is not that of the screen. Calls follow the shape of the dose curve; as a rule, active = well fitted activation curve with a large enough effect; inconclusive = small, poorly fitted or top-dose-only effect; inactive = no such curve, though single readings can be large or run the other way. No potency is given beside an inconclusive call; the fits are too rough.
assay: A quantitative high throughput screen for small molecules that induce DNA re-replication in MCF 10a normal breast cells.; also: nearly all actives have a fitted effect of over 50% in size; as to activity, positive = re-replication: % of control where 0% means no effect; details: MCF 10A DNA re-replication, Hoechst nuclear intensity, 48 h; activity, positive = re-replication: at 46.1 µM (top of the series)
Potency is read from the fitted curve at half-maximal effect; tags tell the direction and shape of the fitted curve.

| SMILES | activity, positive = re-replication | Potency |
| --- | --- | --- |
| Cc1sc(NC(=O)CN2C(=O)NC3(CCCC3)C2=O)nc1-c1ccc(F)cc1 | inactive: 1.02% |  |
| O=C1C=CC(=O)N1CCCCCCN1C(=O)C=CC1=O |  | active: 3.66 µM |
| O=C(CSc1nc(=O)n2ccccc2n1)Nc1ccc2c(c1)OCO2 | inactive: -0.234% |  |
| Nc1scc2c(C(=O)O)nn(-c3ccccc3)c(=O)c12 |  | inconclusive [activator, single point] |
| Cc1ccc(-c2csc(NCCn3c(-c4ccncc4)nc4cc(C(F)(F)F)ccc43)n2)cc1 |  | inconclusive [activator, partial curve, poor fit] |
| COc1ccc(C(=O)Nc2ccc(O)c3ccccc23)cc1 |  | inconclusive [activator, single point] |
| Cc1cccc(/C=C2/Sc3ccc(C(=O)N4CCOCC4)cc3NC2=O)c1 |  | inconclusive [activator, single point] |
| Cc1ccc(N(CCCCN2C(=O)c3ccccc3C2=O)C(=O)c2ccc(Cl)s2)cc1 |  | inconclusive [activator, partial curve, poor fit] |
| CC12CCC(C(=O)Nc3ccccc3Cl)([C@H](Br)C1=O)C2(C)C (some centres not stated) |  | inconclusive [activator, single point] |
| COc1ccc(OC)c2[nH]c(C(=O)N/N=C/c3ccccc3O)cc12 |  | inconclusive [activator, single point] |
| O=C1C2CC=C(Cl)CC2C(=O)N1CC1OCCc2ccccc21 (configuration not stated) |  | inconclusive [activator, full curve, poor fit] |
| C=CCc1cc(OC)ccc1OCCN(C)Cc1ccccc1 |  | inconclusive [activator, full curve, poor fit] |
| Cc1cccc(-c2noc(CN(C(=O)C(c3ccccc3)c3ccccc3)C(C)C)n2)c1 | inactive: 0.764% |  |
| Nc1ccc(N(c2ccccc2)c2ccc(N)cc2)cc1 | inactive: 14.3% |  |
| COc1cc(/C=C2/C(=O)N(C)C(=S)N2C)ccc1OCc1cccc(F)c1 |  | inconclusive [activator, single point] |
| COc1cccc(NC(=O)Nc2ccc(C(C)(C)C)cc2)c1 |  | inconclusive [activator, single point] |
| Cn1cc(CN2CCCC(C(=O)c3cc(F)ccc3F)C2)c2ccccc21 (configuration not stated) | inactive: -22.6% |  |
| CCN(CC)C(=O)C(C)N(C#N)c1nc(NC(C)C)nc(NC(C)C)n1 (configuration not stated) | inactive: 4.2% |  |
| CC1CCN(S(=O)(=O)c2ccc3c(c2)c(=O)c(C(=O)N2CCOCC2)cn3C)CC1 | inactive: 9.36% |  |
| CN(C)c1ccc(-c2cc3ccccc3c(=O)o2)cc1 |  | active: 14.6 µM |
| Cc1ccc(C(C)(C)C)cc1S(=O)(=O)N1CCC(C(=O)N2CCN(c3ccc(O)cc3)CC2)CC1 |  | inconclusive [activator, partial curve, poor fit] |
| CCCCn1c(=NC(=O)c2ccco2)c(C(=O)OCC)cc2c(=O)n3ccccc3nc21 |  | inconclusive [activator, partial curve] |
| COc1cc(CNCCc2c[nH]c3ccccc23)ccc1OCc1ccc(F)cc1 |  | inconclusive [activator, partial curve, poor fit] |
| S=C(NCC1CCCO1)N1CCN(Cc2ccccc2)CC1 (configuration not stated) | inactive: 2.71% |  |

| SMILES | activity, positive = re-replication | Potency |
| --- | --- | --- |
| CC(C)(C)c1ccc(NC(=O)CSc2n[nH]c(=O)n2C2CC2)cc1 | inactive: 0.451% |  |
| CC(=O)C(=Nc1ccccc1Cl)NNc1ccc(Cl)cc1 |  | inconclusive [activator, single point] |
| COCCN(C/C=C/c1ccccc1)C/C=C/c1ccccc1 |  | inconclusive [activator, partial curve, poor fit] |
| Cc1cccc(OCc2ccc(C(=O)Nc3ccc(F)cc3)cc2)c1 |  | inconclusive [activator, single point] |
| Cc1cccc(S(=O)(=O)N2CCN(Cc3ccc4c(c3)OCO4)CC2)c1 | inactive: -8.96% |  |
| Cc1ccc(C)c(-n2nnnc2Sc2nnnn2-c2ccccc2)c1 |  | active: 5.8 µM |
| CCN(CC)c1ccc(NC(=O)C2=CCN(S(=O)(=O)c3ccc(F)cc3)CC2)c(C)c1 |  | inconclusive [activator, single point] |
| Cc1cc(C)n(C(=O)/C(C#N)=N/Nc2cc(Cl)cc(Cl)c2)n1 |  | inconclusive [activator, single point] |
| CCNC(=S)N/N=C/c1cc(C)n(-c2ccc(Cl)cc2)c1C |  | inconclusive [activator, partial curve, poor fit] |
| Cc1ccc(C)c(N2CCN(C(=O)CCc3nc(-c4cccc(F)c4)no3)CC2)c1 |  | inconclusive [activator, full curve, poor fit] |
| O=C(NC1CCCCCCC1)C1=COCCO1 | inactive: 0.0217% |  |
| O=C(O)COc1ccccc1C(Nc1ccccn1)c1cc(Cl)c2cccnc2c1O (configuration not stated) |  | active: 18.4 µM |
| Cc1nn(CCCC(=O)Nc2cc(Oc3ccccc3)cc([N+](=O)[O-])c2)c(C)c1[N+](=O)[O-] |  | inconclusive [activator, partial curve, poor fit] |
| O=C(Nc1ccc2c(c1)OCCO2)c1cc(-c2ccccn2)nc2ccc(Br)cc12 |  | inconclusive [activator, full curve, poor fit] |
| CCN(CC)S(=O)(=O)c1ccc(NC(=O)c2ccc(OCC3CCCO3)cc2)cc1 (configuration not stated) |  | inconclusive [activator, single point] |
| COc1cc(C2C=C(Nc3ccccc3)C(=O)N2c2ccccc2)ccc1O (configuration not stated) |  | inconclusive [activator, single point] |
| Cc1nc2ccccc2nc(C)c1=NOCc1ccc(Cl)cc1Cl |  | inconclusive [activator, partial curve, poor fit] |
| CCCCn1c(=O)[nH]c(=O)c2c1nc(-c1cc3c(cc1Br)OCO3)n2C |  | inconclusive [activator, partial curve, poor fit] |
| CN(C)[C@H]1C(=O)C(C(=O)NCN2CCCC2)=C(O)[C@]2(O)C(=O)C3=C(O)c4c(O)cccc4[C@](C)(O)[C@H]3C[C@H]12 | inactive: -0.691% |  |
| CC1=CC(C)=Nc2ccc(C)cc2N1 |  | inconclusive [activator, partial curve, poor fit] |
| Clc1cccc(-c2nnc(-c3ccccc3)o2)c1 |  | active: 16.4 µM |
| CCc1cc2c(N3CCN(c4ccccc4)CC3)ncnc2s1 |  | inconclusive [activator, single point] |
| COCCN(CCOC)C(=S)Nc1ccccc1Cl |  | inconclusive [activator, partial curve, poor fit] |
| CCN(CC)C(=O)/C(C#N)=C/c1cc(O)c(O)c([N+](=O)[O-])c1 | inactive: 4.44% |  |

| SMILES | activity, positive = re-replication | Potency |
| --- | --- | --- |
| C=CCNS(=O)(=O)c1ccc(C(=O)OCc2cc(=O)oc3cc(OC)ccc23)cc1 |  | inconclusive [activator, single point] |
| Fc1ccc(Nc2nc(N3CCOCC3)c3ccccc3n2)cc1 |  | inconclusive [activator, single point] |
| O=C(/C=N/O)NCc1cccnc1 |  | active: 14.6 µM |
| CN(CC(=O)Nc1ccc(F)c(F)c1F)C(=O)c1nn(Cc2ccccc2)c(=O)c2ccccc12 | inactive: 1.99% |  |
| CC(C)c1ccc(NC(=O)c2snc3ccc(Cl)cc23)cc1 | inconclusive: 75.3% [activator] |  |
| S=C(Nc1ccc(Br)cc1)NC1CCCCC1 |  | inconclusive [activator, single point] |
| Cc1ccccc1C(=O)Nc1ccc(S(=O)(=O)N2CCCC2)cc1 | inactive: 9.11% |  |
| CN(Cc1ccccc1)S(=O)(=O)c1ccc(NC(=S)NC(=O)C2CCCC2)cc1 |  | active: 14.6 µM |
| O=[N+]([O-])c1ccc2nc(N3CCCC3)sc2c1 |  | inconclusive [activator, single point] |
| CN(C)c1ccc(/C=N\NC(=S)SCN2C(=O)C3CCC(C)(C2=O)C3(C)C)cc1 (configuration not stated) |  | active: 7.31 µM |
| CCCCCCOc1ccc(C(=O)NCCCn2ccnc2)cc1 |  | inconclusive [activator, single point] |
| N#Cc1ccc(NC(=O)CN2CCN(c3ccccn3)CC2)cc1 | inactive: -5.46% |  |
| O=C1CCCC2=C1C(c1cccs1)n1nc(SCc3ccccc3)nc1N2 (configuration not stated) |  | inconclusive [activator, partial curve, poor fit] |
| CCOc1ccc(N2C(=O)S/C(=C\c3ccc(O)c(OCC)c3)C2=O)cc1 |  | active: 16.4 µM |
| CCOC(=O)C1CCCN(c2nnnn2-c2ccccc2)C1 (configuration not stated) | inactive: 23% |  |
| CCCOC(=O)c1ccccc1O | inactive: -4.43% |  |
| O=C(Nc1ccc(Cl)cc1)C1CCCN(c2ncnc3c2nc2n3CCCCC2)C1 (configuration not stated) |  | active: 16.4 µM |
| O=C(N/N=C\c1c(O)ccc2ccccc12)c1ccc(Cn2cccn2)o1 |  | active: 10.3 µM |
| CCN(CC)c1nc2c3c(nc4c(c3c1C#N)CC(=O)N4c1ccc(Cl)cc1)NC(C)=N2 |  | active: 9.2 µM |
| O=C(NCCCN1CCN(c2cccc(Cl)c2)CC1)C1CCC(=O)N1Cc1ccccc1Cl (configuration not stated) |  | inconclusive [activator, partial curve, poor fit] |
| COc1cc(NC(=O)c2ccccc2)c(OC)cc1NC(=O)CN1C(=O)N(C)C2(CCCCC2)C1=O | inactive: 2.75% |  |
| Cn1c2ccccc2c2ncn(CCCN3CCOCC3)c(=O)c21 | inactive: -1.43% |  |
| Cc1ccc2nc3c(cc(C(=O)NCCc4ccccc4)c(=N)n3CC3CCCO3)c(=O)n2c1 (configuration not stated) |  | active: 6.51 µM |
| O=S(=O)(NCCC1=CCCCC1)c1ccccc1Br | inactive: 3.59% |  |

Source: PubChem BioAssay AID624296 (National Center for Advancing Translational Sciences (NCATS), 2012)
